# Laboratory results reported in a collection of fitness landscapes (doi:10.1016/j.celrep.2020.107928).
# In all, about 81,000 sequences were measured (“one-hybrid fitness for binding parS DNA”: median about -0.17, highest 2% from about 0.51 on). Some of the results follow.
# B1: Caulobacter ParB omega fusion; a variant is named by its letters at X, in order, B8GW30 (parent)
# chain: MESVVVGEPGMSEGRRGLGRGLSALLGEVDAAPAQAPGEQLGGSREAPIEILQRNPDQPRRTFREEDLEDLSNSIREKGVLQPILVRPSPDTAGEYQIVAGERAWRAAQRAGLKTVPIMVRELDDLAVLEIGIIENVQRADLNVLEEALSYKVLMEKFERTQENIAQTIGKSXSHVANXMRLLXLPDEVQSYLVSGELTAXHARAIAAAADPVALAKQIIEGGLSVRETEALARKAPNLSAGKSKGGRPPRVKDTDTQALESDLSSVLGLDVSIDHRGSTGTLTITYATLEQLDDLCNRLTRGI
# Variants of: B1
# Test: one-hybrid fitness for binding parS DNA (scaled: cognate 1, non-cognate 0); higher = stronger binding
# Details: with parS DNA site
# Outline: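 Pre- and post-selection plasmids were Illumina-sequenced, three replicate libraries were pooled, and any variant with under 10 reads was removed. The libraries were Caulobacter ParB with four specificity codons randomised, selected in E. coli USO through a HIS3 reporter whose site is 19 bp from the promoter. Cells grew 48 hours at 37°C on M9 without histidine, with 0.1 mM IPTG and 5 mM 3-AT. Fitness is the log change in variant-to-wild-type read ratio, rescaled against cognate and non-cognate.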
row,Variant,one-hybrid fitness for binding parS DNA
1,PHSS,≤ 0.2
2,PARE,≤ 0.2
3,ECYR,≤ 0.2
4,TMFR,≤ 0.2
5,WLAW,≤ 0.2
6,GVNW,≤ 0.2
7,AETG,≤ 0.2
8,IQPH,≤ 0.2
9,KYCL,≤ 0.2
10,WVGN,≤ 0.2
11,HTVD,≤ 0.2
12,TVYS,≤ 0.2
13,RYPK,≤ 0.2
14,TILT,≤ 0.2
15,HWYS,≤ 0.2
16,AFVG,≤ 0.2
17,QWSY,≤ 0.2
18,KWHS,≤ 0.2
19,RTGG,0.997
20,ADKE,≤ 0.2
21,TIIA,≤ 0.2
22,RWNA,0.425
23,IKPF,≤ 0.2
24,AKLR,≤ 0.2

row,Variant,one-hybrid fitness for binding parS DNA
1,CTPF,≤ 0.2
2,GKIS,≤ 0.2
3,RLCF,0.27
4,HCYS,≤ 0.2
5,TVCG,≤ 0.2
6,IIYS,≤ 0.2
7,MFVC,≤ 0.2
8,NLSH,≤ 0.2
9,TRAW,≤ 0.2
10,YLCT,≤ 0.2
11,NWRK,≤ 0.2
12,MFTH,≤ 0.2
13,PTFS,≤ 0.2
14,AFKS,≤ 0.2
15,RAIC,0.782
16,WGSC,≤ 0.2
17,KVLT,≤ 0.2
18,EPNT,≤ 0.2
19,KRHH,≤ 0.2
20,KCKF,≤ 0.2
21,QVGY,≤ 0.2
22,HTTD,≤ 0.2
23,AQRW,≤ 0.2
24,GCVW,≤ 0.2

row,Variant,one-hybrid fitness for binding parS DNA
1,MAHS,≤ 0.2
2,ADCG,≤ 0.2
3,ETIS,≤ 0.2
4,SLAA,≤ 0.2
5,MAPC,≤ 0.2
6,GTQG,≤ 0.2
7,HYFC,≤ 0.2
8,YQYK,≤ 0.2
9,GVIF,≤ 0.2
10,TQQS,≤ 0.2
11,MYCG,≤ 0.2
12,TKLL,≤ 0.2
13,WLPG,≤ 0.2
14,FTTL,≤ 0.2
15,NRNS,≤ 0.2
16,QAWV,≤ 0.2
17,IKKS,≤ 0.2
18,DNYE,≤ 0.2
19,LHGM,≤ 0.2
20,MPMF,≤ 0.2
21,RMCP,≤ 0.2
22,CMWS,≤ 0.2
23,TMLT,≤ 0.2
24,QKQR,≤ 0.2

row,Variant,one-hybrid fitness for binding parS DNA
1,RICR,≤ 0.2
2,EINN,≤ 0.2
3,IKAE,≤ 0.2
4,MKYV,≤ 0.2
5,SVIS,≤ 0.2
6,RTAS,0.968
7,THNA,≤ 0.2
8,QQPM,≤ 0.2
9,KMGV,≤ 0.2
10,DEIR,≤ 0.2
11,GGSE,≤ 0.2
12,VNMS,≤ 0.2
13,TKTN,≤ 0.2
14,VRMY,≤ 0.2
15,PMCM,≤ 0.2
16,WTMK,≤ 0.2
17,LKEE,≤ 0.2
18,SGEY,≤ 0.2
19,RLNP,≤ 0.2
20,TCHY,≤ 0.2
21,RVPV,≤ 0.2
22,DFSV,≤ 0.2
23,LNNW,≤ 0.2
24,CLMG,≤ 0.2

row,Variant,one-hybrid fitness for binding parS DNA
1,QVHF,≤ 0.2
2,GSMC,≤ 0.2
3,ITFG,≤ 0.2
4,QFSC,≤ 0.2
5,IEPV,≤ 0.2
6,LLPQ,≤ 0.2
7,NHAA,≤ 0.2
8,PKHS,≤ 0.2
9,EQTR,≤ 0.2
10,YNSE,≤ 0.2
11,HMPI,≤ 0.2
12,CSSE,≤ 0.2
13,HYVC,≤ 0.2
14,LDNG,≤ 0.2
15,DMVL,≤ 0.2
16,KELI,≤ 0.2
17,WIKR,≤ 0.2
18,VRND,≤ 0.2
19,IRCT,≤ 0.2
20,GMKG,≤ 0.2
21,NTRW,≤ 0.2
22,RHCI,≤ 0.2
23,YPTT,≤ 0.2
24,FCPS,≤ 0.2

row,Variant,one-hybrid fitness for binding parS DNA
1,PKNG,≤ 0.2
2,EPKL,≤ 0.2
3,IIPN,≤ 0.2
4,IKES,≤ 0.2
5,LLPG,≤ 0.2
6,WCRA,≤ 0.2
7,IRQM,≤ 0.2
8,GECS,≤ 0.2
9,NGRA,≤ 0.2
10,AQDC,≤ 0.2
11,ACKD,≤ 0.2
12,ILTF,≤ 0.2
13,RACG,0.971
14,IWNT,≤ 0.2
15,METS,≤ 0.2
16,QKDY,≤ 0.2
17,ACYT,≤ 0.2
18,IEIV,≤ 0.2
19,RGLT,0.456
20,SHYF,≤ 0.2
21,RSTR,≤ 0.2
22,PSVI,≤ 0.2
23,TEDR,≤ 0.2
24,RITH,0.214

row,Variant,one-hybrid fitness for binding parS DNA
1,DTND,≤ 0.2
2,GLPS,≤ 0.2
3,RWHV,≤ 0.2
4,ILDT,≤ 0.2
5,ECSC,≤ 0.2
6,HFTD,≤ 0.2
7,CQAS,≤ 0.2
8,VSYM,≤ 0.2
9,IYNY,≤ 0.2
10,LRQN,≤ 0.2
11,YWGS,≤ 0.2
12,PTHL,≤ 0.2
13,VRFS,≤ 0.2
14,HGPW,≤ 0.2
15,HVRL,≤ 0.2
16,RACA,0.609
17,TPSS,≤ 0.2
18,NHRD,≤ 0.2
19,FGPV,≤ 0.2
20,RQFY,0.398
21,KRVP,≤ 0.2
22,KLGI,≤ 0.2
23,RDMG,≤ 0.2
24,CYLR,≤ 0.2

row,Variant,one-hybrid fitness for binding parS DNA
1,NYDF,≤ 0.2
2,NNAS,≤ 0.2
3,TLNM,≤ 0.2
4,FMAR,≤ 0.2
5,TARP,≤ 0.2
6,DDAG,≤ 0.2
7,MVCS,≤ 0.2
8,YSWR,≤ 0.2
9,CSRC,≤ 0.2
10,PQLC,≤ 0.2
11,CPCS,≤ 0.2
12,QWDS,≤ 0.2
13,TAYC,≤ 0.2
14,LPRC,≤ 0.2
15,CFMT,≤ 0.2
16,IDDF,≤ 0.2
17,ATMR,≤ 0.2
18,CSIA,≤ 0.2
19,KKER,≤ 0.2
20,GIPF,≤ 0.2
21,ETNR,≤ 0.2
22,TAKY,≤ 0.2
23,QYNA,≤ 0.2
24,SFSM,≤ 0.2

row,Variant,one-hybrid fitness for binding parS DNA
1,NYCG,≤ 0.2
2,HNKD,≤ 0.2
3,HYYR,≤ 0.2
4,MMCG,≤ 0.2
5,MHSF,≤ 0.2
6,ENQR,≤ 0.2
7,SFND,≤ 0.2
8,VCLL,≤ 0.2
9,LQNM,≤ 0.2
10,ECRD,≤ 0.2
11,FYAS,≤ 0.2
12,MLKY,≤ 0.2
13,WQNC,≤ 0.2
14,LRHR,≤ 0.2
15,RHYQ,≤ 0.2
16,IQEL,≤ 0.2
17,WTRR,≤ 0.2
18,QHLY,≤ 0.2
19,LVLE,≤ 0.2
20,IAGI,≤ 0.2
21,GQDG,≤ 0.2
22,EVRS,≤ 0.2
23,SWEG,≤ 0.2
24,TVRA,≤ 0.2

row,Variant,one-hybrid fitness for binding parS DNA
1,AANS,≤ 0.2
2,ESRF,≤ 0.2
3,SNAL,≤ 0.2
4,VMAC,≤ 0.2
5,LMVN,≤ 0.2
6,KYGP,≤ 0.2
7,AAWR,≤ 0.2
8,GEAL,≤ 0.2
9,KREM,≤ 0.2
10,THFR,0.256
11,SDPH,≤ 0.2
12,WVLY,≤ 0.2
13,TTNM,≤ 0.2
14,ENVT,≤ 0.2
15,IHII,≤ 0.2
16,RRPD,≤ 0.2
17,RRIT,0.693
18,CQTR,≤ 0.2
19,FMHG,≤ 0.2
20,LSLT,≤ 0.2
21,FRDF,≤ 0.2
22,TLSP,≤ 0.2
23,AGKM,≤ 0.2
24,NSTW,≤ 0.2

row,Variant,one-hybrid fitness for binding parS DNA
1,GGRF,≤ 0.2
2,VEFR,≤ 0.2
3,QYTM,≤ 0.2
4,GGTY,≤ 0.2
5,LARR,≤ 0.2
6,FITM,≤ 0.2
7,TDLA,≤ 0.2
8,ETYR,≤ 0.2
9,SLFP,≤ 0.2
10,KTPG,≤ 0.2
11,DRTA,≤ 0.2
12,VDSP,≤ 0.2
13,YMHC,≤ 0.2
14,GAGR,≤ 0.2
15,GCCS,≤ 0.2
16,MQDL,0.226
17,RIRE,≤ 0.2
18,VIQC,≤ 0.2
19,QTQS,≤ 0.2
20,SDES,≤ 0.2
21,DFTL,≤ 0.2
22,RPGF,≤ 0.2
23,YKGR,≤ 0.2
24,LTGV,≤ 0.2

row,Variant,one-hybrid fitness for binding parS DNA
1,TIME,≤ 0.2
2,FSWY,≤ 0.2
3,MIQP,≤ 0.2
4,CKAQ,≤ 0.2
5,YRIT,≤ 0.2
6,SALV,≤ 0.2
7,IRKI,≤ 0.2
8,QMVM,≤ 0.2
9,AYKN,≤ 0.2
10,SNKY,≤ 0.2
11,YMAA,≤ 0.2
12,KLDY,≤ 0.2
13,AMET,≤ 0.2
14,SEAT,≤ 0.2
15,QPFS,≤ 0.2
16,ATMY,≤ 0.2
17,ANFS,≤ 0.2
18,TFAR,≤ 0.2
19,QAMS,≤ 0.2
20,HFTY,≤ 0.2
21,ATPR,≤ 0.2
22,NQEI,≤ 0.2
23,EGPE,≤ 0.2
24,VSHS,≤ 0.2

row,Variant,one-hybrid fitness for binding parS DNA
1,RQCA,0.558
2,NIRF,≤ 0.2
3,SPME,≤ 0.2
4,AIMD,≤ 0.2
5,KCKV,≤ 0.2
6,RWDM,≤ 0.2
7,QLTP,≤ 0.2
8,PSLL,≤ 0.2
9,HSMS,≤ 0.2
10,LVSA,≤ 0.2
11,HRQR,≤ 0.2
12,YTFR,≤ 0.2
13,KTSV,≤ 0.2
14,LAGP,≤ 0.2
15,RMNT,0.904
16,WTKW,≤ 0.2
17,WQNN,≤ 0.2
18,ASKM,≤ 0.2
